PMC4336329 (PLoS ONE, 2015)
Screen size: about 310,000 compounds; about 2,200 (0.71%) showed an effect of 50% or more. Effects have a minus sign here. Some of the results follow.

These molecules were tested against human ether-à-go-go-related gene (hERG) potassium channel (human, UniProt Q12809) (assay: primary screen, population patch clamp on CHO cells stably expressing hERG).
Sequence of human ether-à-go-go-related gene (hERG) potassium channel (Q12809 whole entry, looked up): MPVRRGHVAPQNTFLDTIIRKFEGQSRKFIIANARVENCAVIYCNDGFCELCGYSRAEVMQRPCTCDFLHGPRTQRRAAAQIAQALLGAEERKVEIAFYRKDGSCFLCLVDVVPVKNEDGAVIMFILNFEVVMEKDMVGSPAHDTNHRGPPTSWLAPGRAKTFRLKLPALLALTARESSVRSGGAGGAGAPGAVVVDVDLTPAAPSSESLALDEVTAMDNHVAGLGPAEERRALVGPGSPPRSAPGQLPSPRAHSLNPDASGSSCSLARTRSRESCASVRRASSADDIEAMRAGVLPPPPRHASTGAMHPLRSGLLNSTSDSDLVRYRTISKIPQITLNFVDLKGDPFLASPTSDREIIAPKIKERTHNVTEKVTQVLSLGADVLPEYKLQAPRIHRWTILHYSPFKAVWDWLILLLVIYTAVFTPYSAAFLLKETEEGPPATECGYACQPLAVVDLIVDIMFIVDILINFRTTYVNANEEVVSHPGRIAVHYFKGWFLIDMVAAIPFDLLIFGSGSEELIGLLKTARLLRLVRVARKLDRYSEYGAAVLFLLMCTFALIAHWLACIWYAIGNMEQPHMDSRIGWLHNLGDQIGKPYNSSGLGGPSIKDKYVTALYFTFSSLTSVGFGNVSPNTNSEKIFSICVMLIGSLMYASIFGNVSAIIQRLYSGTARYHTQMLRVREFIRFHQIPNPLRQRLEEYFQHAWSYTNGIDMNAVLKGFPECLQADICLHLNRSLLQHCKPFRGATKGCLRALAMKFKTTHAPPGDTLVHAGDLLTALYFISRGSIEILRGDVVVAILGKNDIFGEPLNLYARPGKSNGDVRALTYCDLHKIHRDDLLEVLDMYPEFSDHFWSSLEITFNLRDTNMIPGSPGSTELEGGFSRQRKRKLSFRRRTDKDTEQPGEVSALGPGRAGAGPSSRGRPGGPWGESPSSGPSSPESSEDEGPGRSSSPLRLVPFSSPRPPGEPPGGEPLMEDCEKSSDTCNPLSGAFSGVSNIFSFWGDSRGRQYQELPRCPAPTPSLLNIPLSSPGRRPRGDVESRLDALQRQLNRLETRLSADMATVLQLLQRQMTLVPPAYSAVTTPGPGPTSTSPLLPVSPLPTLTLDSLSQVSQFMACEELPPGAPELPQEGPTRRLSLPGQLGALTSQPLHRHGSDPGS

SMILES	hERG current change (%, negative = inhibition) at 1uM [%]
CC(=O)Nc1cc2nc(C)n(Cc3ccccc3[N+](=O)[O-])c2nc1C	14
OC(CN1CCN(c2ccccc2)CC1)Cn1c2ccccc2c2ccccc21 (stereo not drawn)	5.81
CC1=NN(C(=O)COc2ccccc2)C(O)(c2ccccc2)C1 (stereo not drawn)	9.77
CCOC(=O)C(CCSC)NC(=O)CN.Cl (stereo not drawn)	-11.6
CCS(=O)(=O)N1CCN(S(=O)(=O)c2ccccc2[N+](=O)[O-])CC1	3.65
C/C(=N\NC(=O)c1cccc(F)c1)c1cccc(NC(=O)c2ccc(F)cc2)c1	9.88
O=C1CN(C(=O)c2ccc(F)cc2)c2ccccc2N1	1.91
COc1ccccc1N1C(=O)[C@@H]2[C@H](C1=O)[C@H](C(=O)c1ccc(OC(C)=O)cc1)N1N=CC=C[C@@H]21	15.9
O=C(NCCS(=O)(=O)NCc1ccc2c(c1)OCO2)c1ccccc1	3.6
CC1CC1c1ccc(/C=C(\C#N)C(=O)Nc2cccc(Cl)c2Cl)o1 (stereo not drawn)	5.08
CCOC(=O)N1CCN(C(=O)CC(C(=O)N2CCc3ccccc32)n2ccnc2)CC1 (stereo not drawn)	-19.2
Cc1cc(N2C(=O)C(O)=C(C(=O)c3ccco3)C2c2cccc(Oc3ccccc3)c2)no1 (stereo not drawn)	13.7
Cc1cc(O)c(-c2cc(C(=O)NCCc3ccc(S(N)(=O)=O)cc3)[nH]n2)cc1C	15.9
CN(c1ccc(F)cc1)S(=O)(=O)c1ccc(Cl)c(C(=O)Nc2ccncc2)c1	10.5
O=C(Nc1ccc(Cl)cc1)c1cnc(-c2ccccc2)nc1-c1ccccc1	2.34
CC(=C\c1ccco1)/C=C(\C#N)C(=O)NCCc1c[nH]c2ccccc12	2.16
O=C(Nc1cccc(-c2nnc(-c3ccccc3)o2)c1)C1CCCCC1	13.3
S=C(NCc1ccccn1)Nc1ccc(Cl)cc1	11.8
CCOc1ccc(C(O)c2nccn2Cc2ccccc2)cc1 (stereo not drawn)	11.3
Cc1csc(NC(=O)COc2ccc3c(C)cc(=O)oc3c2)n1	6
COC(=O)c1sc2ccccc2c1NC(=O)c1coc2ccccc2c1=O	5.66
CC(=O)Nc1ccc(S(=O)(=O)N(C)CC(=O)Nc2ccccc2N2CCCC2)cc1	14.9
Cn1c(SCc2n[nH]c(=S)o2)nnc1-c1ccccc1	10.8
CN(Cc1ccco1)S(=O)(=O)c1ccc(CN2C(=O)c3cccnc3C2=O)s1	10.9
